SMILES strings stand for the structures. This is one part of the list. Single values are uncertain, as repeats are few or missing.
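Note: cells treated in 1,536-well plates, then fixed and DAPI-stained, with nuclei counted from automated high-throughput microscope images.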

The test system of the assay is SkMel5. The experiment in a line: cell count relative to DMSO control; melanoma cells; higher = more viable cells. To be noted: library dose: standard library concentration; 72 h.
`N#CC[C@H](C1CCCC1)n1cc(-c2ncnc3[nH]ccc23)cn1` [ruxolitinib] + O=C(O)c1ccc(-c2c[nH]c3ncc(-c4ccccc4)cc23)cc1C1CCCC1 [GSK650394] (first compound 5 µM, partner dose 0.8 µM): the cell count worked out at 67.2%.

`CC[C@]1(O)C[C@H]2CN(CCc3c([nH]c4ccccc34)[C@@](C(=O)OC)(c3cc4c(cc3OC)N(C=O)[C@H]3[C@@](O)(C(=O)OC)[C@H](OC(C)=O)[C@]5(CC)C=CCN6CC[C@]43[C@@H]65)C2)C1` [vincristine] + OCCn1cc(-c2cnc3nnn(Cc4ccc5ncccc5c4)c3n2)cn1 [PF04217903] (first compound 0.0005 µM, partner dose 5 µM) had a cell count of 97.5%.

`Cc1cc(Nc2cc(N3CCN(C)CC3)nc(Sc3ccc(NC(=O)C4CC4)cc3)n2)n[nH]1` [Tozasertib] + CC1(C)NC(=O)N(c2ccc([N+](=O)[O-])c(C(F)(F)F)c2)C1=O [nilutamide] (first compound 0.03 µM, partner dose 5 µM) had a cell count of 86.4%. `Cc1cc(Nc2cc(N3CCN(C)CC3)nc(Sc3ccc(NC(=O)C4CC4)cc3)n2)n[nH]1` [Tozasertib] + NC(=O)Nc1cc(-c2cccc(F)c2)sc1C(=O)N[C@H]1CCCNC1 [AZD7762] (first compound 0.03 µM, partner dose 0.1 µM) gave a cell count of 76.5%. Compound `Cc1cc(Nc2cc(N3CCN(C)CC3)nc(Sc3ccc(NC(=O)C4CC4)cc3)n2)n[nH]1` [Tozasertib] + CN(NC(=O)CC(=O)NN(C)C(=S)c1ccccc1)C(=S)c1ccccc1 [STA4783] (first compound 0.03 µM, partner dose 0.03 µM) gave a cell count of 58.3%. The result for `Cc1cc(Nc2cc(N3CCN(C)CC3)nc(Sc3ccc(NC(=O)C4CC4)cc3)n2)n[nH]1` [Tozasertib] + C=CCn1c(=O)c2cnc(Nc3ccc(N4CCN(C)CC4)cc3)nc2n1-c1cccc(C(C)(C)O)n1 [MK1775] (first compound 0.03 µM, partner dose 0.1 µM) reads 57.9%. The result for `Cc1cc(Nc2cc(N3CCN(C)CC3)nc(Sc3ccc(NC(=O)C4CC4)cc3)n2)n[nH]1` [Tozasertib] + Cc1ccc(NC(=O)c2cccc(N(C)C)c2)cc1NC(=O)c1ccc(O)cc1 [ZM336372] (first compound 0.03 µM, partner dose 10 µM) reads 55.8%.

Turning to `CC[C@]1(O)C[C@H]2CN(CCc3c([nH]c4ccccc34)[C@@](C(=O)OC)(c3cc4c(cc3OC)N(C=O)[C@H]3[C@@](O)(C(=O)OC)[C@H](OC(C)=O)[C@]5(CC)C=CCN6CC[C@]43[C@@H]65)C2)C1` [vincristine] + C[C@@H]1CCN(C(=O)CC#N)C[C@@H]1N(C)c1ncnc2[nH]ccc12 [CP690550] (first compound 0.0005 µM, partner dose 5 µM), the cell count came to 44%. The result for `Cc1cc(Nc2cc(N3CCN(C)CC3)nc(Sc3ccc(NC(=O)C4CC4)cc3)n2)n[nH]1` [Tozasertib] + CC(C)(C)c1cnc(CSc2cnc(NC(=O)C3CCNCC3)s2)o1 [SNS-032] (first compound 0.03 µM, partner dose 0.05 µM) reads 64.5%. Then `CC[C@]1(O)C[C@H]2CN(CCc3c([nH]c4ccccc34)[C@@](C(=O)OC)(c3cc4c(cc3OC)N(C=O)[C@H]3[C@@](O)(C(=O)OC)[C@H](OC(C)=O)[C@]5(CC)C=CCN6CC[C@]43[C@@H]65)C2)C1` [vincristine] + C=CCn1c(=O)c2cnc(Nc3ccc(N4CCN(C)CC4)cc3)nc2n1-c1cccc(C(C)(C)O)n1 [MK1775] (first compound 0.0005 µM, partner dose 0.1 µM), with 40.2%; and `CC[C@]1(O)C[C@H]2CN(CCc3c([nH]c4ccccc34)[C@@](C(=O)OC)(c3cc4c(cc3OC)N(C=O)[C@H]3[C@@](O)(C(=O)OC)[C@H](OC(C)=O)[C@]5(CC)C=CCN6CC[C@]43[C@@H]65)C2)C1` [vincristine] + Cn1cncc1[C@@](N)(c1ccc(Cl)cc1)c1ccc2c(c1)c(-c1cccc(Cl)c1)cc(=O)n2C [tipifarnib] (first compound 0.0005 µM, partner dose 0.05 µM), with 45.7%. The result for `N#CC[C@H](C1CCCC1)n1cc(-c2ncnc3[nH]ccc23)cn1` [ruxolitinib] + NCC(=O)Nc1ccc(-n2nc(C(F)(F)F)cc2-c2ccc3c(ccc4ccccc43)c2)cc1 [OSU03012] (first compound 5 µM, partner dose 5 µM) reads 48.5%. Regarding `N#CC[C@H](C1CCCC1)n1cc(-c2ncnc3[nH]ccc23)cn1` [ruxolitinib] + CC(C)(C)c1cnc(CSc2cnc(NC(=O)C3CCNCC3)s2)o1 [SNS-032] (first compound 5 µM, partner dose 0.05 µM), the cell count turned out to be 70.8%.

Regarding `CC[C@]1(O)C[C@H]2CN(CCc3c([nH]c4ccccc34)[C@@](C(=O)OC)(c3cc4c(cc3OC)N(C=O)[C@H]3[C@@](O)(C(=O)OC)[C@H](OC(C)=O)[C@]5(CC)C=CCN6CC[C@]43[C@@H]65)C2)C1` [vincristine] + Cc1cc(N2CCOCC2)cc2[nH]c(-c3c(NC[C@@H](O)c4cccc(Cl)c4)cc[nH]c3=O)nc12 [BMS536924] (first compound 0.0005 µM, partner dose 1 µM), the cell count turned out to be 38.7%.

Consider `CC[C@]1(O)C[C@H]2CN(CCc3c([nH]c4ccccc34)[C@@](C(=O)OC)(c3cc4c(cc3OC)N(C=O)[C@H]3[C@@](O)(C(=O)OC)[C@H](OC(C)=O)[C@]5(CC)C=CCN6CC[C@]43[C@@H]65)C2)C1` [vincristine] + CC(C)(C)c1cnc(CSc2cnc(NC(=O)C3CCNCC3)s2)o1 [SNS-032] (first compound 0.0005 µM, partner dose 0.05 µM), for which the cell count was 42.2%.

In the case of `N#CC[C@H](C1CCCC1)n1cc(-c2ncnc3[nH]ccc23)cn1` [ruxolitinib] + NC(=O)Nc1cc(-c2cccc(F)c2)sc1C(=O)N[C@H]1CCCNC1 [AZD7762] (first compound 5 µM, partner dose 0.1 µM), the cell count is 82.6%. The result for `N#CC[C@H](C1CCCC1)n1cc(-c2ncnc3[nH]ccc23)cn1` [ruxolitinib] + O=C(Nc1cccc(Cl)c1)Nc1ncc(CCNc2ncnc3ccsc23)s1 [SNS314] (first compound 5 µM, partner dose 0.004 µM) reads 60.9%; that for `N#CC[C@H](C1CCCC1)n1cc(-c2ncnc3[nH]ccc23)cn1` [ruxolitinib] + CN(NC(=O)CC(=O)NN(C)C(=S)c1ccccc1)C(=S)c1ccccc1 [STA4783] (first compound 5 µM, partner dose 0.03 µM), 42.4%; that for `N#CC[C@H](C1CCCC1)n1cc(-c2ncnc3[nH]ccc23)cn1` [ruxolitinib] + O=C(CCCCCCC(=O)Nc1ccccc1)NO [vorinostat] (first compound 5 µM, partner dose 0.4 µM), 75.1%. Regarding `Cc1cc(Nc2cc(N3CCN(C)CC3)nc(Sc3ccc(NC(=O)C4CC4)cc3)n2)n[nH]1` [Tozasertib] + OCCn1cc(-c2cnc3nnn(Cc4ccc5ncccc5c4)c3n2)cn1 [PF04217903] (first compound 0.03 µM, partner dose 5 µM), the cell count worked out at 72.8%. Then `N#CC[C@H](C1CCCC1)n1cc(-c2ncnc3[nH]ccc23)cn1` [ruxolitinib] + Cc1cc(N2CCOCC2)cc2[nH]c(-c3c(NC[C@@H](O)c4cccc(Cl)c4)cc[nH]c3=O)nc12 [BMS536924] (first compound 5 µM, partner dose 1 µM), with 67.5%; and `N#CC[C@H](C1CCCC1)n1cc(-c2ncnc3[nH]ccc23)cn1` [ruxolitinib] + C=CCn1c(=O)c2cnc(Nc3ccc(N4CCN(C)CC4)cc3)nc2n1-c1cccc(C(C)(C)O)n1 [MK1775] (first compound 5 µM, partner dose 0.1 µM), with 60.1%.

In turn, `N#CC[C@H](C1CCCC1)n1cc(-c2ncnc3[nH]ccc23)cn1` [ruxolitinib] + C[C@@H]1CCN(C(=O)CC#N)C[C@@H]1N(C)c1ncnc2[nH]ccc12 [CP690550] (first compound 5 µM, partner dose 5 µM) registered a cell count of 68.7%. The result for `CC[C@]1(O)C[C@H]2CN(CCc3c([nH]c4ccccc34)[C@@](C(=O)OC)(c3cc4c(cc3OC)N(C=O)[C@H]3[C@@](O)(C(=O)OC)[C@H](OC(C)=O)[C@]5(CC)C=CCN6CC[C@]43[C@@H]65)C2)C1` [vincristine] + CN(C)S(=O)(=O)c1ccc2c(c1)/C(=C/c1cc3c([nH]1)CCCC3)C(=O)N2 [SU6656] (first compound 0.0005 µM, partner dose 2 µM) reads 27.3%.

In the case of `Cc1cc(Nc2cc(N3CCN(C)CC3)nc(Sc3ccc(NC(=O)C4CC4)cc3)n2)n[nH]1` [Tozasertib] + Cc1cc(N2CCOCC2)cc2[nH]c(-c3c(NC[C@@H](O)c4cccc(Cl)c4)cc[nH]c3=O)nc12 [BMS536924] (first compound 0.03 µM, partner dose 1 µM), the cell count stood at 54.9%. Then `N#CC[C@H](C1CCCC1)n1cc(-c2ncnc3[nH]ccc23)cn1` [ruxolitinib] + Cn1c(Nc2ccc(C(F)(F)F)cc2)nc2cc(Oc3ccnc(-c4ncc(C(F)(F)F)[nH]4)c3)ccc21 [CHIR265] (first compound 5 µM, partner dose 0.4 µM), with 23.9%.

`CC[C@]1(O)C[C@H]2CN(CCc3c([nH]c4ccccc34)[C@@](C(=O)OC)(c3cc4c(cc3OC)N(C=O)[C@H]3[C@@](O)(C(=O)OC)[C@H](OC(C)=O)[C@]5(CC)C=CCN6CC[C@]43[C@@H]65)C2)C1` [vincristine] + Cc1ccc(NC(=O)c2cccc(N(C)C)c2)cc1NC(=O)c1ccc(O)cc1 [ZM336372] (first compound 0.0005 µM, partner dose 10 µM) displayed a cell count of 54.3%.

For the origin of these results see the supplement of paper PMC4604168 (melanoma cell lines).
